Results published in PubChem BioAssay AID686979 (National Center for Advancing Translational Sciences (NCATS), 2013).
Values joined by “and” are separate entries in the source; they are usually repeats but may differ in a detail not shown here. Identical values can stand only once. In all, about 420,000 compounds went through this assay and about 50,000 (12%) were called active. Inconclusive results, whose numbers are uncertain, are shown with a selection of clear calls. Calls follow the shape of the dose curve; as a rule, active = well fitted inhibition curve with a large enough effect; inconclusive = small, poorly fitted or top-dose-only effect; inactive = flat fitted curve, though single readings scatter. Potencies of inconclusive entries are doubtful fits and often do not repeat.

Assay: qHTS for Inhibitors of human tyrosyl-DNA phosphodiesterase 1 (TDP1): qHTS in cells in presence of CPT; also: nearly all actives have a fitted effect of over 55% in size
Details: chicken DT40 Tdp1-/-;hTDP1 cells + 20 nM CPT, ATP luminescence, 48 h; activity change, negative = growth inhibition: at 46.2 µM (top of the series) unless noted
Procedure, shortened: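 Chicken DT40 Tdp1-/- cells stably complemented with human TDP1 were seeded at 400 cells/well in medium containing 20 nM camptothecin, exposed to pin-transferred compounds, and grown at 37 °C for at least 48 hr. Viability was read as ATP luminescence.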
% is scaled to controls: 0 for no effect and ±100 for the full control effect; potency is read from the fitted curve at half-maximal effect; tags tell the direction and shape of the fitted curve.

Structure (SMILES)	activity change, negative = growth inhibition	Potency
O=C(Oc1cc2oc(=O)cc(-c3ccccc3)c2cc1Cl)C1CCCCC1	inactive: 1.9%	
COCCNc1ncnc2c1c(-c1ccccc1)cn2-c1ccc(C)c(Cl)c1		inconclusive: 29.1 µM [inhibitor, single point]
CN1CCc2c(sc3c2c(=O)n(-c2ccccc2)c2nncn32)C1		inconclusive: 29.1 µM [inhibitor, single point]
O=C(NCc1ccco1)c1ccc2c(c1)N(Cc1ccccc1)C(=O)c1ccccc1S2(=O)=O		inconclusive: 36.6 µM [inhibitor, partial curve, poor fit]
O=[N+]([O-])c1cc(Br)c2nsnc2c1N1CCOCC1		inconclusive: 29.1 µM [inhibitor, single point]
O=C(CSc1nnnn1-c1cccc2c1CCCC2)N1CCCC1		active: 16.4 µM
O=C(NNC(=O)c1ccc2[nH]c(=O)c(=O)[nH]c2c1)c1cccc(Br)c1		inconclusive: 0.0046 µM [inhibitor, full curve, poor fit]
CCCCOc1cc(CC2CNC(=O)N2)ccc1OC (configuration not stated)		inactive and inconclusive: 56.2 µM [inhibitor, single point]
O=C(CSc1nccc(=O)[nH]1)N1CCN(c2ccccc2)CC1		inconclusive: 29.1 µM [inhibitor, single point]
Cc1cccc(CNc2ccnc(-c3ccccc3CN(C)C)n2)c1		active: 13 µM
O=C(NCC(=O)N(c1ccccc1)C(C(=O)NC1CCCCC1)c1cccnc1)c1cccs1 (configuration not stated)	inactive: 1.55%	
COc1ccc(NC(=O)CSc2nc3c([nH]c4ccccc43)c(=O)n2-c2ccccc2)c(OC)c1	inactive: -27.3%	
CC1(c2ccc3noc(-c4ccc(Cl)cc4)c3c2)OCCO1		inconclusive: 29.1 µM [inhibitor, single point]
COc1ccccc1C(=O)CC(=O)C(=O)Nc1cccc([N+](=O)[O-])c1C		active: 16.4 µM
CCC(=O)/C=C1/Sc2ccccc2N1CC		inconclusive: 25.9 µM [inhibitor, single point]
CC(=O)Nc1sc(C)c(C)c1C(=O)OCC(=O)NC(C)c1ccccc1 (configuration not stated)		inconclusive: 29.1 µM [inhibitor, single point]
CCOc1ccc(NC(=O)Cn2c3ncccc3c(=O)n2-c2ccc(CC)cc2)cc1		inconclusive: 20.6 µM [inhibitor, single point]
O=C(Nc1cccnc1N1CCOCC1)c1cccs1	inactive: 6.25%	
CN1CCN(C(c2cccc(Cl)c2)c2ccccc2Cl)CC1 (configuration not stated)		inconclusive: 29.1 µM [inhibitor, single point]
COc1ccc(-c2ccc(=O)n(Cc3cccc(Cl)c3)n2)cc1		inconclusive: 18.4 µM [inhibitor, single point]
COCCN(C(=O)COC(=O)/C=C/c1ccc2ccccc2n1)c1c(N)n(Cc2ccccc2)c(=O)[nH]c1=O		inconclusive: 29.1 µM [inhibitor, single point]
CCc1ccc(C2CC(=O)NC(SCC(=O)OC(C)C)=C2C#N)cc1 (configuration not stated)		inconclusive: 18.4 µM [inhibitor, single point]
Cc1ccc(CSc2nnc(-c3ccncc3)n2CC2CCCO2)cc1 (configuration not stated)	inactive: -19.1%	
Cn1c(/C=C/c2ccc(Br)cc2)nc2ccccc2c1=O		inconclusive: 16.4 µM [inhibitor, single point]

Structure (SMILES)	activity change, negative = growth inhibition	Potency
CCc1cccc2sc(NC(=O)C3CC3)nc12		inconclusive: 29.1 µM [inhibitor, single point]
COc1ccc(C(CNC(=O)c2cccc(S(=O)(=O)Nc3cccc(C)c3)c2)N2CCOCC2)cc1 (configuration not stated)		inconclusive: 29.1 µM [inhibitor, single point]
CC1(C)Cc2ccccc2-c2nc3n(c(=O)c21)CCCS3	inconclusive: -32.4% [inhibitor]	
COC(=O)c1c(C)oc2c1cc(NS(=O)(=O)c1cccs1)c1ccccc12	inactive: -23.5%	
Cc1ccc(CNC(=O)c2oc3c(c2C)-c2nn(Cc4ccc(Cl)cc4)cc2CC3)cc1		active: 10.3 µM
N=c1c(C(=O)NCCc2ccccc2)cc2c(=O)n3ccccc3nc2n1CCCN1CCOCC1	inactive: -26.5%	
CC(=O)c1ccc(OCCCC(=O)Nc2cc(Cl)ccc2-n2cncn2)cc1	inactive: -2.75%	
O=C(NCCc1ccccc1)C(c1cccs1)N(C(=O)c1csnn1)C1CC1 (configuration not stated)	inconclusive: -35.5% [inhibitor]	
CCN(CC)S(=O)(=O)c1ccc(NC(=O)NCc2noc3ccc(C)cc23)cc1		active: 20.6 µM
O=C(C[n+]1csc2ccccc21)c1ccc(I)cc1		inconclusive: 35.5 µM [inhibitor, single point]
Cn1c(=O)oc2cc(S(=O)(=O)Nc3cccc(F)c3)ccc21	inactive: -12.8%	
CC(C)C1C(=O)N(Cc2cn(Cc3ccco3)nn2)CCS(=O)(=O)N1Cc1ccc(-c2ccccc2)cc1 (configuration not stated)		inconclusive: 29.1 µM [inhibitor, single point]
COc1cc(/C=C2/NC(=O)N(Cc3ccccc3F)C2=O)cc(OC)c1O		inconclusive: 29.1 µM [inhibitor, single point]
Cc1ccccc1CS(=O)(=O)CCC(=O)NCCCN1CCN(c2ccccc2F)CC1		inconclusive: 8.2 µM [inhibitor, partial curve]
S=C(Nc1ccc(Cl)cc1)c1nc2ccccc2s1		inconclusive: 29.1 µM [inhibitor, single point]
COc1ccc(CCNCc2ccccc2N2CCCC2)cc1		active: 18.4 µM
C=CCOc1c(CNc2ccc(S(N)(=O)=O)cc2)cccc1OC		inconclusive: 20.6 µM [inhibitor, partial curve]
Cc1ccc(NCc2ccc(Cl)nc2)c(NCc2ccc(Cl)nc2)c1		inconclusive: 16.4 µM [inhibitor, single point]
COc1cc2nc(C3CCC3)n(N)c(=O)c2cc1OC		inconclusive: 3.66 µM [inhibitor, full curve]
C=C1C(=O)[C@]23C[C@H]1CCC2[C@]1(C)CCC[C@@](C)(C(=O)O)C1C[C@@H]3O (some centres not stated)		active: 1.46 µM
CN(Cc1ccc(Cl)c(Cl)c1)C(c1cc2ccccc2o1)c1nnnn1C(C)(C)C (configuration not stated)		inconclusive: 23.1 µM [inhibitor, single point]
C/C(=N/N=C1/NC(=O)CC(C(=O)Nc2ccccc2)S1)c1cccs1 (configuration not stated)	inactive: 3.21%	
Cc1ccccc1S(=O)Cc1ccc(C(=O)N2CCN(c3cccc(C)c3C)CC2)o1 (configuration not stated)		active: 0.651 µM
O=S(=O)(c1ccc(NC(=S)NCc2ccco2)cc1)N1CCCC1	inactive: 11.4%	

Structure (SMILES)	activity change, negative = growth inhibition	Potency
CC(=O)c1cccc(OCC(=O)N(C)CC(=O)Nc2ccc(F)cc2)c1	inactive: -18.8%	
N#CCCN(C(=O)COC(=O)c1ccc(S(=O)(=O)N2CCCCCC2)cc1)c1ccccc1	inactive: -22.3%	
COc1cc(C(=O)NCc2ccncc2)cc(Br)c1OCc1ccccc1		active: 18.4 µM
CN(C(=O)c1cccc(NC(=O)Cc2ccc(NC(=O)C3CCN(C(=O)C4CCCC4)CC3)cc2)c1)C1CCCCC1		inconclusive: 16.4 µM [inhibitor, single point]
COc1ccc(NC2=Nc3cccc4cccc2c34)cc1OC		active: 23.1 µM
CN(Cc1cccnc1)Cc1cn[nH]c1-c1ccc(-c2ccccc2)cc1		inconclusive: 29.1 µM [inhibitor, single point]
Cc1cccc(NC(=S)NC(=O)c2ccc(Br)o2)c1	inactive: 0.885%	
Cc1cc(NC(=O)CSc2nnc(-c3c[nH]c4ccccc34)n2-c2ccc(Cl)cc2)no1		inconclusive: 20.6 µM [inhibitor, partial curve]
Cc1ccc(-c2c(CN3CCN(c4cccc(C)c4)C(C)C3)csc2C)cc1 (configuration not stated)		inconclusive: 29.1 µM [inhibitor, single point]
CCOC(=O)N1CCN(C(=O)CCCn2nc(C)c3sc4ccccc4c3c2=O)CC1		inconclusive: 29.1 µM [inhibitor, single point]
O=C(N[C@H](CO)Cc1ccccc1)[C@H]1O[C@@H](n2ccc(=O)[nH]c2=O)[C@H](O)[C@@H]1O	inactive: -4.61%	
CN(C)c1ccc(N=Nc2ccc3ncccc3c2)cc1	inactive: -13.8%	
Cc1ccc(C(=O)Oc2coc(CSc3nnc(NC(=O)c4cccs4)s3)cc2=O)cc1	inactive: -1.12%	
CCOc1ccc(C(=O)Nc2nnc(C3=COCCO3)o2)cc1		inconclusive: 16.4 µM [inhibitor, partial curve]
c1ccc(-c2ccccc2OCCCN2CCOCC2)cc1	inactive: -21.4%	
Cc1nn(-c2ccccc2)c(N2CCCC2)c1/C=N/Nc1ccc(S(N)(=O)=O)cc1[N+](=O)[O-]		active: 16.4 µM
O=C(COC(=O)c1ccc(N2CCCC2=O)cc1)c1ccc(OC(F)F)cc1	inactive: -3.15%	
Cc1sc2ncnc(NC3CCN(Cc4ccccc4)CC3)c2c1C		active: 2.59 µM
CC1(C(=O)NCC(F)(F)F)CCN1C(=O)Cc1ccc(-c2ccccc2)cc1 (configuration not stated)		active: 14.6 µM
CCSc1ccc([C@@H]2[C@@H]3C(=O)N(CC)C(=O)[C@@H]3[C@]3(C(=O)OC)CCCN23)cc1		inconclusive: 29.1 µM [inhibitor, single point]
CCCCOC(=O)c1ccc(NC(=S)NC(=O)c2c(Br)c(C)nn2C)cc1		inconclusive: 29.1 µM [inhibitor, single point]
CNC(=O)C1(C)Cc2c(-c3ccc4c(c3)OCO4)ccnc2O1 (configuration not stated)		inconclusive: 25.9 µM [inhibitor, single point]
Cc1nn(Cc2c(F)c(F)c(F)c(F)c2F)c(C)c1NC(=O)c1nn(C)cc1[N+](=O)[O-]		inconclusive: 20.6 µM [inhibitor, single point]
CCOc1ccc(CCNC(=O)c2cnc3sc(N(CC)CC)nn3c2=O)cc1OCC	inactive: -7.79%	
